Experimental data published in the supplement of paper PMC7125110.
± gives the standard error. Variants at the background level are over-represented here.

B1: glmS ribozyme (parent)
chain: AUAAAAGCGCCAGAACUACAGAAAUGUAGUUGACGAGGAGGAGGUUUAUCGAAUUUUCGGCGGAUGCCUCCAAA

Legend:
Conditions in all cases: with glucosamine-6-phosphate
glucosamine-6-phosphate [1] = variants of: B1; assay: self-cleavage kobs at 40 uM GlcN6P; higher = faster cleavage; RNA array
How it was run: (§1)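 Barcoded ribozyme variants, transcribed in situ by E. coli RNA polymerase on sequenced MiSeq chips, were followed via a hybridised Cy3 probe at 37 °C. Glucosamine-6-phosphate ranged from 40 μM to 10 mM in HEPES/KCl/Mg(OAc)2 buffer. kobs came from decay fits to per-tile medians, and kcat and KM from weighted Michaelis–Menten fits.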

glucosamine-6-phosphate [2] = variants of: B1; assay: self-cleavage kobs at 2500 uM GlcN6P; higher = faster cleavage; RNA array
How it was run: as §1

glucosamine-6-phosphate [3] = variants of: B1; assay: self-cleavage kobs at 10000 uM GlcN6P; higher = faster cleavage; RNA array
How it was run: as §1

glucosamine-6-phosphate [4] = variants of: B1; assay: self-cleavage kobs at 640 uM GlcN6P; higher = faster cleavage; RNA array
How it was run: as §1

glucosamine-6-phosphate [5] = variants of: B1; assay: self-cleavage kobs at 160 uM GlcN6P; higher = faster cleavage; RNA array
How it was run: as §1

Variant | self-cleavage kobs at 40 uM GlcN6P (glucosamine-6-phosphate [1]) [s⁻¹] | self-cleavage kobs at 2500 uM GlcN6P (glucosamine-6-phosphate [2]) [s⁻¹] | self-cleavage kobs at 10000 uM GlcN6P (glucosamine-6-phosphate [3]) [s⁻¹] | self-cleavage kobs at 640 uM GlcN6P (glucosamine-6-phosphate [4]) [s⁻¹] | self-cleavage kobs at 160 uM GlcN6P (glucosamine-6-phosphate [5]) [s⁻¹]
G13C G51A | < 1e-05 | < 1e-05 | < 1e-05 |  | 
G13C G51U | < 1e-05 | < 1e-05 | < 1e-05 | < 1e-05 | < 1e-05
G13C G59U | < 1e-05 | < 1e-05 |  | < 1e-05 | < 1e-05
G13C G60U | < 1e-05 | < 1e-05 |  |  | 
G13C G63A | < 1e-05 | < 1e-05 |  | < 1e-05 | 
G13C U30C G62A | < 1e-05 | < 1e-05 |  | < 1e-05 | 
G13C U46A C50U | < 1e-05 |  |  |  | 
G13C U69G | 3.61e-05 ± 1.3e-05 |  |  | 9.44e-05 ± 2.5e-05 | 4.33e-05 ± 1.6e-05
G13U A14C A15U A53C | < 1e-05 |  |  |  | 
G13U A15U A48U | < 1e-05 | < 1e-05 | < 1e-05 | < 1e-05 | 
G13U A36G G62U G66U C70A | < 1e-05 |  |  |  | 
G13U A42C A53C C68A | < 1e-05 |  |  |  | 
G13U A42C C50A C61G U69A C71G | < 1e-05 |  | < 1e-05 |  | 
G13U A52U C70G | < 1e-05 |  |  |  | 
G13U A53U G59U | < 1e-05 |  |  |  | 
G13U A64U | < 1e-05 | < 1e-05 | < 1e-05 | < 1e-05 | < 1e-05
G13U C16U | 4.83e-05 ± 1.1e-05 |  |  | 0.0004 ± 6.9e-05 | 0.000115 ± 2.9e-05
G13U C16U C70U | 5.86e-05 ± 1.3e-05 |  | 0.00165 ± 0.00029 |  | 
G13U C34A | < 1e-05 | < 1e-05 | < 1e-05 | < 1e-05 | < 1e-05
G13U C50A | < 1e-05 |  |  |  | 
G13U C50U | < 1e-05 |  | < 1e-05 |  | 
G13U C58U | < 1e-05 |  |  |  | 
G13U G32C A36U | < 1e-05 | < 1e-05 |  |  | 
G13U G35C C71G | < 1e-05 |  | < 1e-05 |  | 
G13U G35U | < 1e-05 | < 1e-05 | < 1e-05 | < 1e-05 | < 1e-05
G13U G35U G63C A64U | < 1e-05 |  |  |  | 
G13U G38A A39U | < 1e-05 |  |  |  | 
G13U G40A G60U C61G G66C | < 1e-05 |  | < 1e-05 |  | 

Variant | self-cleavage kobs at 40 uM GlcN6P (glucosamine-6-phosphate [1]) [s⁻¹] | self-cleavage kobs at 2500 uM GlcN6P (glucosamine-6-phosphate [2]) [s⁻¹] | self-cleavage kobs at 10000 uM GlcN6P (glucosamine-6-phosphate [3]) [s⁻¹] | self-cleavage kobs at 640 uM GlcN6P (glucosamine-6-phosphate [4]) [s⁻¹] | self-cleavage kobs at 160 uM GlcN6P (glucosamine-6-phosphate [5]) [s⁻¹]
G13U G40U A42C A48U C58G U65A | < 1e-05 |  |  |  | 
G13U G41C U49G C70G | < 1e-05 |  |  |  | 
G13U G41U G59U G63C U65G U69C | < 1e-05 | < 1e-05 | < 1e-05 | < 1e-05 | 
G13U G44U G59U | < 1e-05 |  |  |  | 
G13U G44U U69G | < 1e-05 |  | < 1e-05 |  | 
G13U G59U | < 1e-05 |  | < 1e-05 | < 1e-05 | < 1e-05
G13U G63A C67A | < 1e-05 |  |  |  | 
G13U G63C | < 1e-05 |  | < 1e-05 | < 1e-05 | < 1e-05
G13U U31A A39C C68U U69A | < 1e-05 |  |  | < 1e-05 | < 1e-05
G13U U45A U47A G60C | < 1e-05 |  | < 1e-05 |  | 
G13U U47C | < 1e-05 |  |  |  | 
G13U U54C G59U | < 1e-05 | < 1e-05 |  | < 1e-05 | 
G13U U54G | 3.24e-05 ± 1.1e-05 |  |  | 0.000263 ± 6e-05 | 9.27e-05 ± 1.6e-05
A14C A33G | < 1e-05 | < 1e-05 | < 1e-05 |  | 
A14C A33G G37U A42U C67G | < 1e-05 |  |  |  | 
A14C A33G G38A G41U | < 1e-05 | < 1e-05 |  |  | 
A14C A36G G60U C71U | < 1e-05 |  |  |  | 
A14C A36U G66U | < 1e-05 |  | < 1e-05 | < 1e-05 | < 1e-05
A14C A39C A42G G62U C70G | < 1e-05 |  |  |  | 
A14C A39C G40U U55A | < 1e-05 |  | < 1e-05 |  | 
A14C A39G C58G C71U | < 1e-05 |  |  |  | 
A14C A48G U69C | < 1e-05 |  |  |  | 
A14C C16A G51C | < 1e-05 | < 1e-05 |  |  | 
A14C C34A U47A A48U U65A | < 1e-05 |  | < 1e-05 |  | 
A14C C34U A36U | < 1e-05 | < 1e-05 |  | < 1e-05 | 
A14C C61U | < 1e-05 | < 1e-05 |  | < 1e-05 | 
A14C G38U | < 1e-05 |  |  | < 1e-05 | 
